Measurements as given in paper PMC6919601, “Identification of Plasmodium dipeptidyl aminopeptidase allosteric inhibitors by high throughput screening” (PLoS ONE, 2019).
About 230 (0.21%) of roughly 110,000 compounds showed an effect of 50% or more. This is one part of the list.

These molecules were tested against DPAP1 (Plasmodium falciparum, UniProt Q8IIJ9) (assay: primary screen, percent inhibition; read by cleavage of a fluorogenic dipeptide substrate; higher = more effect of the substance).
Set-up: species or system P. falciparum D10 trophozoite lysates; single well
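Further: 30 min substrate incubation versus DMSO and 10 µM JCP410 controls.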

Sequence of DPAP1 (Q8IIJ9 whole entry, looked up): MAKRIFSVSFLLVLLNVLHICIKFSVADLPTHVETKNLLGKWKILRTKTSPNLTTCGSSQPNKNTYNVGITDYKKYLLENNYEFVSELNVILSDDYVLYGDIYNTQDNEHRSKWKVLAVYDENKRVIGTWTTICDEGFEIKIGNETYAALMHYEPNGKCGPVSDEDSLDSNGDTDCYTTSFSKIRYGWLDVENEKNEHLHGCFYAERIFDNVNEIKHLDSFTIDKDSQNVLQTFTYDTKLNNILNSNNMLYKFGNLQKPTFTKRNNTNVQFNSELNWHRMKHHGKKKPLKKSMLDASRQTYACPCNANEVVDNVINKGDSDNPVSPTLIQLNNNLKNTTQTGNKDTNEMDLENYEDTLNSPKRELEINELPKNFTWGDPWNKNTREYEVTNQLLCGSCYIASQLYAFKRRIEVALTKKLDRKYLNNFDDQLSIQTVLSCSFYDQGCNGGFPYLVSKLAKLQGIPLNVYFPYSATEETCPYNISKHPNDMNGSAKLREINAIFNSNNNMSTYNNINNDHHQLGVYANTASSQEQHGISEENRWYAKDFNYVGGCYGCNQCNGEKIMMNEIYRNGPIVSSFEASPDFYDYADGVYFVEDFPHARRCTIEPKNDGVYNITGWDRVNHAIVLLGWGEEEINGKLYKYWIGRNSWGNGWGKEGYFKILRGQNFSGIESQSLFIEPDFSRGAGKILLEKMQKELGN

| Structure (SMILES) | % Inhibition @ 10 uM |
| --- | --- |
| CC(C)N(CCCNC(=O)Cn1cccc1C(=O)c1ccccc1)Cc1ccccc1 | -0.522% |
| COc1ccc(OC)c(N(CC(=O)Nc2ccccc2)S(=O)(=O)c2ccc(C)cc2)c1 | 3.17% |
| CC(CCc1ccccc1)NC(=O)CSc1nc2cccnc2[nH]1 (centres unmarked) | 6.3% |
| Cc1cccc(-n2nnc(-c3nsc(NC(=O)c4ccc(Cl)cc4)n3)c2C)c1 | 0.92% |
| CC(Oc1ccccc1)C(=O)Nc1ccc(Cl)cc1 (centres unmarked) | -3.28% |
| O=C(O)CCCC(=O)N1N=C(c2ccco2)CC1c1ccco1 (centres unmarked) | -0.366% |
| COc1ccc(C(=O)N2CCOC(COc3ccccc3)C2)cc1OC (centres unmarked) | 2.72% |
| CCN(CC)Cc1cc(CCNC(=O)c2ccc(Cl)cc2)ccc1O | -2.73% |
| O=C(O)c1cccc(S(=O)(=O)N2CCN(c3ccccc3)CC2)c1 | -4.6% |
| COc1ccc(CCNCc2c(C(=O)O)c(C)n(Cc3ccccc3F)c2C)cc1OC | 1.41% |
| Cn1c(C(=O)NCCCN2CCOCC2)cc2sccc21 | -6.68% |
| CCS(=O)(=O)c1ncc(Cl)c(C(=O)Nc2sc3c(c2C(=O)NCCOC)CCCC3)n1 | 5.29% |
| COc1ccc(NC(=O)CC2SC(Nc3ccccc3Cl)=NC2=O)c(OC)c1 (centres unmarked) | 5.03% |
| Cc1cc(C)c2c(n1)SCC(=O)N2CC(=O)NCCc1ccc(Cl)cc1 | 2.65% |
| CCC(C)Oc1ccc(/C=C2/NC(=O)N(CC(=O)Nc3cccc(C)c3)C2=O)cc1 (centres unmarked) | -5.13% |
| COCCCNC(=O)CCCn1nc(-c2ccccc2)c2cc(Cl)ccc21 | -1.37% |
| COc1ccccc1OC(c1ccccc1)P(=O)(OC)OC (centres unmarked) | -6.06% |
| CC12CN3CC(C)(CN(C1)C3c1ccccc1F)C2 (centres unmarked) | -1.2% |
| CC1CCCCC1NC(=O)CCCc1cn(C)c2ccccc12 (centres unmarked) | 3.66% |
| CCOCCCNC(=O)C(NC(=O)c1ccc2c(c1)OCO2)c1ccccc1 (centres unmarked) | 5.11% |
| CCC(C(=O)NCc1ccccc1Cl)n1nc(C)n2c(cc3sccc32)c1=O (centres unmarked) | -1.58% |
| COc1cc(C(CC(=O)O)N2Cc3ccccc3C2=O)cc(OC)c1OC (centres unmarked) | -1.03% |
| O=C(Cn1nnc2sc(-c3ccccc3)cc2c1=O)N1CCCCCC1 | -2.71% |
| Cc1cc(-c2cc(C(=O)O)c3cc(Br)ccc3n2)c(C)s1 | -11.1% |
| CC1c2nc3ccccc3n2C(CC(=O)NCc2ccc(Cl)cc2)C(=O)N1Cc1ccccc1 (centres unmarked) | 0.44% |

| Structure (SMILES) | % Inhibition @ 10 uM |
| --- | --- |
| CCc1ccc(C2C(C#N)=C(N)Oc3[nH]nc(-c4cc(OC)c(OC)c(OC)c4)c32)cc1 (centres unmarked) | 10% |
| CCCOc1ccc2oc(=O)c3c(c2c1)CCCN3C(=O)CN1CCCCC1CC (centres unmarked) | 7.43% |
| O=C(CC(c1ccc(F)cc1)N1Cc2ccccc2C1=O)NCc1ccco1 (centres unmarked) | -6.5% |
| O=C(NCc1ccc2c(c1)OCO2)C1CC(=O)N(C2CCCCCC2)C1 (centres unmarked) | -1.34% |
| CCn1c2ccc(F)cc2c2nc(C)sc21 | -1.33% |
| C=CCNC(=O)CN(c1ccc(OC)c(Cl)c1)S(=O)(=O)c1ccccc1 | 0.324% |
| CS(=O)(=O)c1ccc(-c2cccc([C@H](N[C@@H](CC3CCCCC3)C(=O)NC3(C#N)CC3)C(F)(F)F)c2)cc1 | -4.82% |
| COc1ccc(-c2nc(S)n(CN3CCC(c4ccccc4)CC3)n2)cc1 | 14.1% |
| Cc1ccc(NC(=O)CCC2CCCC2)nc1 | 0.907% |
| O=C(Cn1nc(Cc2ccncc2)c2ccccc2c1=O)NC1CCN(Cc2ccccc2)CC1 | 0.44% |
| CCOc1ccc(CCNCc2c(C(=O)O)c(C)n(Cc3cc(C)ccc3C)c2C)cc1OCC | 1.41% |
| CCc1ccccc1N(CC(=O)N(CC)CC)S(=O)(=O)c1ccc(C)cc1 | 8.26% |
| CC(C)c1ccc2c(c1)C(N1CCN(C)CC1)=Cc1cccnc1S2 | 5.49% |
| Cc1ccc(CN(CC(=O)O)S(=O)(=O)c2ccc(Cl)cc2)cc1 | -0.661% |
| O=C(Cc1ccccc1)Nc1ccc(-c2ccc(NC(=O)Cc3ccccc3)cc2)cc1 | 4.33% |
| COc1ccc(NC(=O)CN2c3cccc4cccc(c34)S2(=O)=O)cc1 | -5.72% |
| Cc1cc(C)c2c(n1)nn1c(C)c(CCC(=O)NCCCN3CCCC3=O)c(C)nc21 | -4.24% |
| O=C(c1ccc2c(Cl)c3c(nc2c1)CCCC3)N1CCC2(CC1)OCCO2 | -1.24% |
| CCCCNc1nc2c(-c3cccc(F)c3)nnn2c2ccccc12 | -4.69% |
| N#Cc1ccc(NC(=O)[C@@H]2CCCC[C@@H]2C(=O)O)cc1 | 4.57% |
| Cc1ccc(-c2cc(NC(=O)c3cccs3)on2)cc1 | 1.9% |
| O=S(=O)(c1ccc(F)c(Cl)c1)N1CCN(Cc2ccccc2)CC1 | -4.71% |
| O=C(COCc1cc(-c2ccc3c(c2)OCO3)on1)NCc1ccccc1 | 0.0322% |
| CCn1c(C)cc(/C=C2\SC(=O)N(CC(=O)Nc3ccc(C)c(C)c3)C2=O)c1C | -0.62% |
| Nc1ccc(O)c(-c2nc3cc(Cl)ccc3o2)c1 | -3.65% |

| Structure (SMILES) | % Inhibition @ 10 uM |
| --- | --- |
| O=C1c2ccccc2C(Nc2ccc(Cl)cn2)N1Cc1ccccc1 (centres unmarked) | 0.66% |
| CCOC(=O)c1c(NS(=O)(=O)c2cc(OC)c(Cl)cc2OC)sc2c1CCCC2 | 7.25% |
| COc1ccc(CCN2C(=O)CC(N3CCN(Cc4ccc5c(c4)OCO5)CC3)C2=O)cc1OC (centres unmarked) | 4.44% |
| CN(C)c1nc(-c2ccccc2)c(C(=O)N2CCCC2)s1 | -10.7% |
| CCOc1ccc(C(=O)N2CCc3ccccc32)cc1 | -7.08% |
| CCOC(=O)c1[nH]c2ccccc2c1NC(=O)COC | 0.813% |
| COc1ccccc1OCC(=O)NCCN1CCOCC1 | 1.52% |
| COC(=O)c1c(NC(=O)c2ccc(F)cc2)sc(C(=O)Nc2ccc(F)cc2)c1C | 1.39% |
| Cc1nc2c(c(C)c1CCC(=O)NCc1cccnc1)c(=O)n(C)c(=O)n2C | 0.44% |
| CC1=NN(c2ccccc2)C(=O)C1C(=O)c1ccc(F)cc1 (centres unmarked) | -4.26% |
| COc1ccc(CNC(=O)C(CC2CCCCC2)C(=O)NCC#N)cc1 (centres unmarked) | -0.214% |
| O=C1NC(=O)C(=Cc2ccc(N3CCOCC3)o2)C(=O)N1 | -1.4% |
| COc1ccccc1C(=O)NC(=O)Nc1cc(C)nn1-c1cccc(F)c1 | -0.403% |
| CN1C(=O)c2ccccc2C(C(=O)N2CCN(c3ccccn3)CC2)C1c1cccs1 (centres unmarked) | -3.37% |
| COc1ccccc1N1C(=O)c2cccnc2C1=O | -3.09% |
| COc1ccc(OC)c(-n2nnc(-c3nc(-c4ccccc4F)no3)c2N)c1 | 0.6% |
| Cn1c(=O)c2cn(N)cc2n(C)c1=O | 0.884% |
| CCc1ccc(OCC(=O)NC2CCCCC2)c(Br)c1 | 2.01% |
| Cc1sc(NC(=O)CSc2ncn(-c3ccccc3)n2)nc1-c1ccccc1 | 3.58% |
| COc1ccccc1OCC(=O)Nc1sc2c(c1C(N)=O)CCCC2 | 4.32% |
| Cc1ccc2c(c1)cc1c(=O)n(CC(=O)N3CCN(Cc4ccccc4)CC3)nc(C)n12 | 1.68% |
| Cc1ccc(S(=O)(=O)N(CC(=O)N(C)Cc2ccccc2)c2ccccc2C)cc1 | 8.26% |
| Cc1ccc(S(=O)(=O)N2CCN(Cc3ccccn3)CC2)cc1 | -5.26% |
| Cn1c(=O)c2c(nc(SCc3nnc(N)s3)n2Cc2ccccc2Cl)n(C)c1=O | 5.17% |
| CCOCCn1c(COc2ccc(OC)cc2)nc2ccccc21 | 1.08% |

| Structure (SMILES) | % Inhibition @ 10 uM |
| --- | --- |
| c1c2c(cc3c1OCO3)OCN(CC13CC4CC(CC(C4)C1)C3)C2 | 2.93% |
| Cc1ccc2oc(=O)c3cnn(CC(=O)N4CCc5ccccc5C4)c3c2c1 | 1.62% |
| COc1ccc(OCC(=O)NCCc2ccccc2)cc1 | 0.488% |
| Cc1ccc(NS(=O)(=O)c2ccc(F)cc2)cc1C | 0.526% |
| CCOc1ccccc1CNC(=O)C(C)n1nc(C)c2c(C)n(-c3ccccc3)nc2c1=O (centres unmarked) | 5.46% |
| Cc1c(C(=O)Nc2cccnc2Cl)sc2nc3n(c(=O)c12)CCCC3 | -3.8% |
| COc1cc(-c2cc(C(F)(F)F)n3ncc(C(=O)NCC4CCCO4)c3n2)cc(OC)c1OC (centres unmarked) | 6.79% |
| CCC(C)NS(=O)(=O)c1ccc(NC(=O)c2cccc(NC(=O)C(C)C)c2)cc1 (centres unmarked) | -0.425% |
| C/C=C/C(=O)NCC1OCCc2ccccc21 (centres unmarked) | -4.74% |
| C=CCNc1nc2c(c(=O)n(C)c(=O)n2C)n1Cc1ccc(F)cc1 | 6.59% |
| CC1Cc2cc(/C=C3\N=C(c4cccs4)OC3=O)ccc2O1 (centres unmarked) | -5.85% |
| COc1ccc(NS(=O)(=O)c2ccc(NC(=S)NC(=O)/C=C/c3ccccc3)cc2)nn1 | 1.7% |
| CCN1CCCC1CNC(=O)c1ccc(-c2nc(CS(=O)(=O)c3ccc(C)cc3)c(C)o2)cc1 (centres unmarked) | 1.48% |
| CCCC1CCC(c2ccc(C(=O)NC(CCSC)C(=O)O)cc2)CC1 (centres unmarked) | 16.5% |
| CCN(CC)S(=O)(=O)c1ccc(N/C=C2/C(=O)NC(=O)N(c3ccccc3)C2=O)cc1 | 2.44% |
| C=C(C)[C@@H]1CC=C(CN2CCCC(C(N)=O)C2)CC1 (some centres unmarked) | 3.48% |
| CCc1ccccc1NC(=O)Nc1cccc(Cl)c1 | -1.38% |
| O=C(CSc1ncccc1C(=O)O)c1ccccc1 | 3.04% |
| CC(=O)Nc1ccc(NC2=CC(=O)c3ccccc3C2=O)cc1 | 1.54% |
| Cc1c(C#N)c(O)nc(O)c1/C=N/c1ccc(S(=O)(=O)N2CCOCC2)cc1 | -5.96% |
| Cc1ccc2c(CNCc3ccc(Cl)cc3)c(C(=O)O)[nH]c2c1 | 1.8% |
| CCS(=O)(=O)N1CCC2(CC1)OC(=O)C(C)=C2C(=O)N1CCC2(CC1)OCCO2 | -0.342% |
| Cc1ccc2occ(CC(=O)N3CCC(Cc4ccccc4)CC3)c2c1 | -2.4% |
